Results from patent US20250325645A1, “BOVINE VIRAL DIARRHEA VIRUS IMMUNOGENIC COMPOSITIONS AND METHODS OF USE THEREOF” (KANSAS STATE UNIVERSITY RESEARCH FOUNDATION, priority 2021, published 2025).

Test system: CD8+ T cells from BVDV-immunized steers
Experiment: Ex vivo IFN-γ ELISPOT screening of predicted peptides
Details: 2.5 μg/ml peptide; for Level of IFN-γ+CD8+ T cell responses (in words): BVDV-immunized steers, SFC per million CD8+ T cells
Description: Anti-bovine CD8a mAb [7C2B clone, IgG2a isotype; WSU Monoclonal Antibody Center (WSUMAC), Item #BOV2019] and goat anti-mouse IgG microbeads (Miltenyi Biotec, Cat #130-048-402) were used for isolation of CD8+ T cells from splenocytes. Similarly, anti-bovine CD14 mAb (MM61A clone, IgG1 isotype; WSUMAC, Item #BOV2109), along with goat anti-mouse IgG microbeads, was used for the isolation of CD14+ monocytes from autologous PBMCs. The purity of the isolated subsets were determined to be 95-98% by flow cytometry (data not shown). Purified cell subsets were re-suspended in complete RPMI 1640 medium at appropriate dilution for IFN-γ ELISPOT assay.
IFN-γ responses in purified CD8+ T cells from the BVDV-immunized steers were evaluated by ELISPOT assay (Bovine IFN-γ ELISpot BASIC ALP kit, Mabtech, Cat #3119-2A) as in accordance with vendor's protocol and as previously described. Briefly, for all eight steers, 0.2×10^6 CD8+ T cells were co-cultured with 0.4×10^5 autologous CD14+ monocytes that were pulsed with 2.5 μg/ml of gamma-irradiated BVDV-1b TGAC or BVDV-2a A125 in a total volume of 100 μl complete RPMI 1640 medium in triplicate wells of MultiScreen-IP plates (MilliporeSigma™, Cat #MAIPS4510). Similar co-cultures incubated with 2.5 μg/ml of ConA or the medium alone served as positive and negative controls, respectively. The plates were incubated at 37° C. for 48 h and following processing, IFN-γ spots were enumerated using ELISPOT reader [ImmunoSpot® S6 Analyzer, Cellular Technology Limited]. The responses were reported as spot forming cells (SFC) per million CD8+ T cells after the background spot counts from negative control triplicates were deducted.
To screen the two-hundred predicted peptides, twenty pools of 10 peptides were generated and each peptide was diluted to a final concentration of 2.5 μg/ml in complete RPMI 1640 medium (Table 1). The peptide pools were tested for non-specific IFN-γ responses using PBMCs collected from naïve steers and no background responses were detected (data not shown). […] Additionally, a pool of previously defined BVDV CD4+ T cell epitope peptides (2.5 μg/ml of each peptide) was used as negative control. Peptide pools 4-7, 9, 10, and 18, stimulated IFN-γ+CD8+ T cells in the three steers and thus, individual peptides were tested to identify T cell epitopes.

[1] = all eight BVDV-immunized steers (TGAC and A125 groups together)
[2] = A125-immunized steers (n=4), splenic CD8+ T cells with autologous CD14+ monocytes
[3] = TGAC-immunized steers (n=4), splenic CD8+ T cells with autologous CD14+ monocytes

## IEFCSHTPV [Peptide 173]
  Level of IFN-γ+CD8+ T cell responses (in words): high numbers of IFN-γ+CD8+ T cells
[1]
  Steers with peptide-specific IFN-γ+CD8+ T cell responses: most of the BVDV-immunized steers

## FGAYAASPY [Peptide 86]
[2]
  Steers with peptide-specific IFN-γ+CD8+ T cell responses: 4/4
[3]
  Steers with peptide-specific IFN-γ+CD8+ T cell responses: 4/4
[1]
  Steers with peptide-specific IFN-γ+CD8+ T cell responses: most of the TGAC and A125 vaccinees

## YYDDNLNEI [Peptide 64]
[1]
  Steers with peptide-specific IFN-γ+CD8+ T cell responses: the majority of BVDV-immunized steers

## YETATVLVF [Peptide 34]
[1]
  Steers with peptide-specific IFN-γ+CD8+ T cell responses: All BVDV-immunized steers

## AMAVLTLTL [Peptide 39]
[2]
  Steers with peptide-specific IFN-γ+CD8+ T cell responses: 4/4
[3]
  Steers with peptide-specific IFN-γ+CD8+ T cell responses: 3/4

## ISSKWQMVY [Peptide 82]
[2]
  Steers with peptide-specific IFN-γ+CD8+ T cell responses: 4/4
[3]
  Steers with peptide-specific IFN-γ+CD8+ T cell responses: 4/4

## SEVLLLSVV [Peptide 32]
[1]
  Steers with peptide-specific IFN-γ+CD8+ T cell responses: All BVDV-immunized steers

## GSVWNLGKY [Peptide 56]
[1]
  Steers with peptide-specific IFN-γ+CD8+ T cell responses: All BVDV-immunized steers

## IMFEAFELL [Peptide 43]
[1]
  Steers with peptide-specific IFN-γ+CD8+ T cell responses: all vaccinees

## YAASPYCEV [Peptide 47]
[1]
  Steers with peptide-specific IFN-γ+CD8+ T cell responses: most of the TGAC and A125 vaccinees

## KGYNSGYYY [Peptide 87]
[2]
  Steers with peptide-specific IFN-γ+CD8+ T cell responses: 4/4
[3]
  Steers with peptide-specific IFN-γ+CD8+ T cell responses: 4/4

## KSKTWFGAY [Peptide 88]
[1]
  Steers with peptide-specific IFN-γ+CD8+ T cell responses: most of the TGAC and A125 vaccinees

## VMSRVIAAL [Peptide 69]
[2]
  Steers with peptide-specific IFN-γ+CD8+ T cell responses: 3/4
[3]
  Steers with peptide-specific IFN-γ+CD8+ T cell responses: 3/4

## SVMLGVGAI [Peptide 63]
[1]
  Steers with peptide-specific IFN-γ+CD8+ T cell responses: all vaccinees

## MEILSQNPV [Peptide 172]
[1]
  Steers with peptide-specific IFN-γ+CD8+ T cell responses: all vaccinees

## GPVYHRAPL [Peptide 61]
  Level of IFN-γ+CD8+ T cell responses (in words): higher mean IFN-γ+CD8+ T cells in TGAC and A125 vaccinees than Npro106-114

## REHNKWILK [Peptide 38]
  Level of IFN-γ+CD8+ T cell responses (in words): high numbers of IFN-γ+CD8+ T cells
[1]
  Steers with peptide-specific IFN-γ+CD8+ T cell responses: most of the BVDV-immunized steers

## KTARNINLY [Peptide 81]
[1]
  Steers with peptide-specific IFN-γ+CD8+ T cell responses: the majority of BVDV-immunized steers

## LMNKTQANL [Peptide 176]
[2]
  Steers with peptide-specific IFN-γ+CD8+ T cell responses: 4/4
  Level of IFN-γ+CD8+ T cell responses (in words): highest number of IFN-γ+CD8+ T cells
[3]
  Steers with peptide-specific IFN-γ+CD8+ T cell responses: 4/4
[1]
  Steers with peptide-specific IFN-γ+CD8+ T cell responses: most of the TGAC and A125 vaccinees

## SEQKRTLLM [Peptide 37]
[1]
  Steers with peptide-specific IFN-γ+CD8+ T cell responses: all vaccinees

## ALFEAVQTI [Peptide 99]
[1]
  Steers with peptide-specific IFN-γ+CD8+ T cell responses: all vaccinees except for one TGAC vaccinee

## WADFLTLIL [Peptide 97]
[2]
  Steers with peptide-specific IFN-γ+CD8+ T cell responses: 4/4
[3]
  Steers with peptide-specific IFN-γ+CD8+ T cell responses: 4/4

## FEEASMCEI [Peptide 45]
[1]
  Steers with peptide-specific IFN-γ+CD8+ T cell responses: all vaccinees

## YFEPRDNYF [Peptide 100]
[2]
  Steers with peptide-specific IFN-γ+CD8+ T cell responses: 4/4
  Level of IFN-γ+CD8+ T cell responses (in words): very high levels
[3]
  Steers with peptide-specific IFN-γ+CD8+ T cell responses: 4/4

## RYYETAIPK [Peptide 89]
  Level of IFN-γ+CD8+ T cell responses (in words): high numbers of IFN-γ+CD8+ T cells
[1]
  Steers with peptide-specific IFN-γ+CD8+ T cell responses: most of the BVDV-immunized steers

## ALRDFNPEL [Peptide 40]
[2]
  Steers with peptide-specific IFN-γ+CD8+ T cell responses: 4/4
[3]
  Steers with peptide-specific IFN-γ+CD8+ T cell responses: 4/4

## FVNEDIGTI [Peptide 65]
[1]
  Steers with peptide-specific IFN-γ+CD8+ T cell responses: the majority of BVDV-immunized steers

## ALSKRHVPM [Peptide 177]
[2]
  Steers with peptide-specific IFN-γ+CD8+ T cell responses: 3/4
[3]
  Steers with peptide-specific IFN-γ+CD8+ T cell responses: 4/4
